Data taken from PMC13042857, “TBK1 Induces the Formation of Optineurin Filaments That Condensate with Polyubiquitin and LC3 for Cargo Sequestration” (Advanced Science, 2025).

Target: T1, M1-linked di-ubiquitin (UniProt P0CG47 partial chain; P0CG47 partial chain)
T1 construct: ubiquitin, first unit of the linear (M1-linked, head to tail) di-ubiquitin; ubiquitin, second unit of the linear (M1-linked, head to tail) di-ubiquitin; the parent is probably pGEX-M1-linked tetra-ubiquitin (surmised); also called 2xM1-ub; di-M1-ubiquitin; source: GST-di-ubiquitin construct made with the Q5 mutagenesis kit; expression and purification not described for this construct
Assay: ITC; OPTN or its variants in the cell, di-M1-ubiquitin in the syringe; 25 °C; 20 mM Tris-HCl pH 7.4, 150 mM NaCl, 0.5 mM TCEP; MicroCal PEAQ-ITC
Details: both partners purified

B1: Optineurin, wildtype (natural protein)
chain: not shown
notes: Optineurin, human, 577 amino acids; The molecule of the ITC; also called OPTN; WT OPTN; not shown: GST, N-terminal, cleaved
  Kd: 110 nM
